Drawing on PMC12629600, this text covers Insulin-binding AUC ratio (to the isotype negative control) for two molecules.

This assay addresses human insulin (Sigma #I2643) (human) (UniProt P01308). The assay is described as follows: ELISA; human insulin coated at 1 ug/ml in borate buffered saline pH 8 on Maxisorp plates; mAbs serially diluted 1:2 from 10 ug/ml in 0.5% chicken serum PBS-T, room temperature; detected with goat anti-human IgG-HRP; AUC compared to the isotype negative control, positive cutoff AUC ratio of 7.
Chain of UniProt P01308 (P01308 25-54, chain 1 of 2): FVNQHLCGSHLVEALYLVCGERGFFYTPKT
Chain of UniProt P01308 (P01308 90-110, chain 2 of 2): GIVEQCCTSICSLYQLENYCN

B1: Stage 1 T1D mAb 15 (antibody, V domains shown)
VH: QVQLQQSGPGLVKPSQTLSLTCVISGDSVSRNSAAWNWIRQSPSRGLEWLGRTYYKSKWYNDYAVSVKSRITINPHTSKNQFSLQLNSVTPEDTAVYYCARSPPRRAALPFRYYGMDVWGQGTTVTVSS
VL: [about 100 residues not shown]PETFGQGTKLEIK
As to B1, the Insulin-binding AUC ratio (to the isotype negative control) is 10.

B2: Stage 1 T1D mAb 3 (antibody, V domains shown)
VH: [about 100 residues not shown]DSGYCVDWGQGTLVTVSS
VL: DIQMTQSPSTLSASVGDRVTITCRASQSISSWLAWYQQKPGNAPNLLIYKASSLESGVPSRFSGSGSGTEFTLTISSLQPDDFATYYCQQYNSNRTFGQGTKVEIK
Turning to B2, the Insulin-binding AUC ratio (to the isotype negative control) amounted to 10.3.
